Measured values from PMC6351562, “Structure, function, and inhibition of drug reactivating human gut microbial β-glucuronidases” (Scientific Reports, 2019).

Key:
[1] = test system: Parabacteroides merdae GUS (PmGUS); details: pNPG as substrate; optimal pH 5.5; 37 °C
[2] = test system: Parabacteroides merdae GUS (PmGUS); assay: In vitro DCF-G processing assay (UPLC); format: biochemical; details: DCF-G as substrate, 400 µM; pH 5.5; 37 °C
[3] = test system: Bacteroides ovatus GUS (BoGUS); assay: In vitro DCF-G processing assay (UPLC); format: biochemical; details: DCF-G as substrate, 400 µM; pH 5.0; 37 °C

SMILES	Km [1] [µM]	kcat [1]	Apparent kcat [2]	Apparent kcat [3] [s⁻¹]
O=C(O)[C@H]1O[C@@H](Oc2ccc([N+](=O)[O-])cc2)[C@H](O)[C@@H](O)[C@@H]1O [pNPG, p-nitrophenol-β-D-glucuronide]	2400 ± 70	0.088 s⁻¹ and 0.088 ± 0.001 s⁻¹	–	–
O=C(Cc1ccccc1Nc1c(Cl)cccc1Cl)O[C@@H]1O[C@H](C(=O)O)[C@@H](O)[C@H](O)[C@H]1O [DCF-G, Diclofenac acyl β-D-glucuronide]	–	–	0.034 s⁻¹ and 0.034 ± 0.001 s⁻¹	1.64 ± 0.04

Where “and” joins values, the source holds several entries; their conditions need not be identical. Equal entries are not always repeated.
